The values below come from PubChem BioAssay AID1346428 (National Center for Advancing Translational Sciences (NCATS), 2018).

The whole screen tested about 48,000 compounds, of which about 1,200 (2.5%) were called active. Another 2% or so got no clear call; they are omitted.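 Rule for the calls: active = activation of at least 60% and not above a set upper limit (about 1 call in 100 departs from these limits); inconclusive = activation of 40% to 60%, or above that upper limit; inactive = activation under 40%.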 The list shows a part of the results.

Chain of UniProt O75388 (O75388 whole entry, looked up, the tested form may be a part): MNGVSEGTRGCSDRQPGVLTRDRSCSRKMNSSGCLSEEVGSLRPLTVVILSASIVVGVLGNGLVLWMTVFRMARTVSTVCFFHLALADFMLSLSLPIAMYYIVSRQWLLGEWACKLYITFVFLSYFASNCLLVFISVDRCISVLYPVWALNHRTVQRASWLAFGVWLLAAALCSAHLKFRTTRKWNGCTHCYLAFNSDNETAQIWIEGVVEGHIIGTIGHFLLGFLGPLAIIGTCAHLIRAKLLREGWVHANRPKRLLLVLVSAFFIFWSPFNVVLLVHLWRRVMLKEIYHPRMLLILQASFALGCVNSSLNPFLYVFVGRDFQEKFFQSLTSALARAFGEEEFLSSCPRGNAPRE

In the assay the target is Probable G-protein coupled receptor 32 (Homo sapiens) (UniProt O75388). In words: qHTS for Agonists of Human Resolvin D1 Receptor DRV1. Note: 0% is about no effect. The conditions noted are these: CHO-K1 GPR32 beta-arrestin PathHunter luminescence, 90 min; at 76.9 µM; stronger effect = higher value; zero percent set by DMSO-only wells. The procedure, abridged:
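Agonism was scored as beta-arrestin recruitment to ProLink-fused GPR32 in stably transfected CHO-K1 cells, giving a chemiluminescent beta-Gal signal; compounds were incubated 90 min at 37 °C.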
Background: qHTS replaces the single test concentration by a dilution series.
On to `O=C(CN1C(=O)COc2ccc(S(=O)(=O)NC3CCCC3)cc21)Nc1ccc(Cl)cc1`, for which the activation is active: 104%.
Next, `CCOC(=O)c1[nH]c(C)c(C(=O)NC(CC)Cc2ccccc2)c1C` (stereo not given): inactive: -0.446%; `O=C(Nc1cccc(-c2cn3cccnc3n2)c1)c1cc(Br)ccc1Cl`: active: 82.8%.
For `Cc1ccc2c(c1)N(CC(=O)NCCc1ccc(Cl)cc1)C(=O)c1cccnc1O2`, the activation was inactive: -18.1%.
With `Cn1c(-n2cccc2)c(-c2c(-c3ccccc3)[nH]c3c2c(=O)[nH]c(=O)n3C)c(=O)[nH]c1=O`, the activation was inactive: -13.2%.
For `COc1cccc(CNC(=O)c2ccc3c(c2)nc2n3CCOC2)c1`, the activation is inactive: -9.4%.
Next, `Cc1ccc(-c2nnn3c2nc(NCC(C)c2ccccc2)c2ccccc23)cc1` (stereo not given): inactive: 9.62%; `CCN(Cc1ccccc1)C(=O)CN1C(=O)COc2ccc(S(=O)(=O)NC3CCCC3)cc21`: inactive: -38.5%; `CCOc1ccc(CNC(=O)c2ccc(CS(=O)Cc3ccc(Cl)cc3)o2)cc1` (stereo not given): inactive: -11.7%.
As for `Cc1oc(=O)oc1CN1CCN(c2cc3c(cc2F)c(=O)c(C(=O)O)c2n3C(C)S2)CC1` (stereo not given), the activation was inactive: 4.23%.
Under `CCOC(=O)CSc1nc2sc3c(c2c(=O)n1-c1ccccc1)CC(C(C)C)OC3` (stereo not given) stands inactive: -8.44%; under `CCOC(=O)c1c(S(=O)(=O)N2CCCC(C(=O)Nc3ccccn3)C2)c(C)n(C)c1C` (stereo not given), inactive: 18.3%.
On to `COc1cc(CNC(=O)C2CCCCN2S(=O)(=O)c2ccc(F)cc2)cc(OC)c1OC` (stereo not given), for which the activation was inactive: 17.6%.
For `CCOc1ccc(C2CC(=O)Nc3cc4c(cc32)OCO4)cc1OC` (stereo not given), the activation was inactive: 19.4%.
As to `COc1ccc(-c2cc(C)no2)cc1S(=O)(=O)NCc1cccs1`, the activation is inactive: -15.6%.
As to `CCc1cccc(NC(=O)CN2Cc3ccccc3C2=O)c1`, the activation is inactive: -7.78%.
Under `COC(=O)c1c(NC(=O)Cc2coc3cc(C)ccc23)sc2c1CCCC2` stands inactive: -11.6%; under `COc1ccc(CN2CCc3c(c(=O)n4ncc(C(=O)N5CCN(c6ccc(F)cc6)CC5)c4n3C)C2)cc1`, inactive: -10%.
Next, `COc1ccccc1CNC(=O)c1cccn1-c1nnc(N2CCCCC2)s1`: inactive: -3.75%; `CC(=O)N1CCc2c(sc3c2c(=O)n(-c2ccc(C)cc2)c(=O)n3Cc2c(F)cccc2Cl)C1`: inactive: 6.37%.
`Cc1ccc(CNC(=O)C2CCN(S(=O)(=O)c3ccc(F)cc3)CC2)cc1`: the activation was inactive: -10.9%.
In the case of `COc1ccc(CNC(=O)c2cc(-c3ccc(OC)cc3)nc3n[nH]c(-c4cccc([N+](=O)[O-])c4)c23)cc1`, the activation was inactive: -3.03%.
On to `Cc1ccc2cccc(NC(=O)COc3ccccc3Cl)c2n1`, for which the activation is inactive: -8.56%.
Next, `Cc1ccc(C)c(Cn2c(CCCNC(=O)C3CCCCC3)nc3ccccc32)c1`: inactive: -18.7%.
For the compound `COc1cccc(C(=O)c2cn(CC(=O)NCc3ccccc3Cl)c3nc(C)ccc3c2=O)c1`, the activation was inactive: 12.5%.
In the case of `CCCOc1cccc(C2c3c(oc4ccccc4c3=O)C(=O)N2c2nncs2)c1` (stereo not given), the activation is inactive: -4.63%.
For `Cc1ccc(-c2nc(CS(=O)CC(=O)N3CCN(c4cccc(Cl)c4)CC3)c(C)o2)cc1` (stereo not given), the activation was inactive: -11.9%.
In the case of `C[C@H](Cc1ccccc1)Nc1ncnc2c1ncn2[C@@H]1O[C@H](CO)[C@@H](O)[C@H]1O`, the activation was inactive: -12.4%.
Take `O=C(CSc1nc2ccsc2c(=O)n1Cc1ccccc1Cl)NCc1ccc(F)cc1`: the activation is inactive: 0.992%.
On to `CCc1ccc(-n2c(=O)c3sc4ccccc4c3n(CC(=O)N3CCCC3)c2=O)cc1`, for which the activation is inactive: -11.4%.
Regarding `Cc1nc(-c2cccc(NC(=O)Nc3ccccc3C(F)(F)F)c2)no1`, the activation was inactive: -5.08%.
`Cc1c(Cl)cccc1NC(=O)Cn1cc(C(=O)c2cccs2)c2ccccc21`: the activation was inactive: 3.77%.
Under `CC(C)CN(CC(C)C)S(=O)(=O)c1ccc(C(=O)Nc2sc3c(c2C(N)=O)CC(C)(C)NC3(C)C)cc1` stands inactive: -13.3%; under `O=C(Nc1c2c(nn1-c1ccc(Cl)cc1)CS(=O)(=O)C2)c1cccc(F)c1`, inactive: 22.5%.
In the case of `CCc1ccc(NC(=O)CCCc2nnc3n(CC(C)C)c(=O)c4sccc4n23)cc1`, the activation was inactive: -6.11%.
Under `CC(C)c1nn2c(=O)cc(COC(=O)c3ccccc3NC(=O)COc3ccccc3)nc2s1` stands inactive: -24.5%; under `COc1ccc(-c2nc(CNS(=O)(=O)c3ccc(Br)cc3)cs2)cc1`, inactive: -16.4%; under `COC(=O)c1ccc(C2c3c(-c4ccccc4O)n[nH]c3C(=O)N2Cc2ccncc2)cc1` (stereo not given), inactive: 5.74%.
For `O=C(CSc1nc(-c2cccc(F)c2)[nH]c1-c1ccccc1)Nc1ccc2c(c1)OCCO2`, the activation was inactive: -13.8%.
`Cc1cccc(OCc2ccc(-c3nc(C#N)c(NCc4cccnc4)o3)o2)c1`: the activation was inactive: 44.4%.
Consider `CCC(=O)N1CCc2cc(OC)c(OC)cc2C1COc1ccccc1OC` (stereo not given), for which the activation was inactive: 1.31%.
As for `CC(=O)Nc1ccc(S(=O)(=O)NCCc2cn3ccsc3n2)cc1`, the activation was inactive: -4.13%.
With `Cc1nnc(NC(=O)CSc2nccn2Cc2ccc(F)cc2)s1`, the activation was inactive: 18.7%.
In the case of `COc1cccc(N2CCN(C(=O)c3cnn(-c4ccc(C)cc4C)c3C3CCN(C(=O)OC(C)(C)C)CC3)CC2)c1`, the activation was inactive: -12.8%.
Next, `CC(=O)N1c2c(cc(Br)cc2S(=O)(=O)N2CCN(c3cccc(Cl)c3)CC2)CC1C` (stereo not given): inactive: 11.5%.
As for `Cc1ccc(Cl)cc1NC(=O)Cn1c(=O)n(Cc2ccc(C(=O)NCc3ccc4c(c3)OCO4)cc2)c(=O)c2ccccc21`, the activation was inactive: -9.51%.
Next, `CCN(Cc1ccccc1)C(=O)c1cc2c(s1)-c1c(C)cccc1OC2`: inactive: -16%; `CC(=O)c1cccc(NS(=O)(=O)c2ccc3c(c2)NC(=O)CC(=O)N3)c1`: inactive: 0.41%; `Cc1ccc(C)c(N2CCN(C3=C(c4ccccc4)C(=O)c4ccccc43)CC2)c1`: inactive: -0.125%.
In the case of `O=c1c2cnn(-c3ccc(Cl)cc3)c2ncn1Cc1cccc(C(F)(F)F)c1`, the activation was inactive: 5.83%.
Regarding `COc1ccc(NC(=O)CSc2cc(-c3ccccc3)nc(C)n2)cc1`, the activation was inactive: -10.6%.
In the case of `Cc1nn(CC(=O)Nc2ccccc2F)c(=O)c2c(C)n(-c3ccc(Cl)cc3)nc12`, the activation was inactive: -20.7%.
For the compound `CCN1CCN(c2c(S(=O)(=O)c3ccc(C)c(C)c3)cnc3ccc(F)cc23)CC1`, the activation is inactive: -23%.
Next, `CCOc1ccc(-c2csc(/C(C#N)=C/c3ccc(Br)cc3)n2)cc1`: inactive: -9.53%.
Next, `CCCN(CCC)C(=O)Cn1c(=O)n(-c2ccc(OC)cc2)c(=O)c2ccc(C(=O)NCc3ccc(C)cc3)cc21`: inactive: -7.41%; `CCCn1c(NCc2ccc(N(CC)CC)cc2)nc2ccccc21`: inactive: 6.08%.
Under `CCS(=O)(=O)c1ncc(N(Cc2ccc(F)cc2)Cc2ccco2)c(C(=O)Nc2cc(C)ccc2C)n1` stands inactive: -13.6%; under `Cc1nc([N+](=O)[O-])cn1-c1ccc([N+](=O)[O-])cc1`, inactive: 0.707%; under `CCOC(=O)C1CCN(C(=O)CN2c3ccc(CC)cc3-c3ccccc3S2(=O)=O)CC1`, inactive: -37.7%.
`CCC(=O)Nc1ccc2nc(SCCOc3ccc(C)cc3)sc2c1`: the activation is inactive: 10.1%.
Turning to `CN1CCN(c2nc3c(S(=O)(=O)c4ccccc4)nnn3c3ccsc23)CC1`, the activation is inactive: -7.08%.
Turning to `Cc1ccc(-n2c(SCC(=O)Nc3cccc(C)c3)nc3c(oc4ccccc43)c2=O)cc1`, the activation is inactive: -14.9%.
For `CCOC(=O)C1CCCN(C(=O)c2ccc(-n3ccc4ccccc43)s2)C1` (stereo not given), the activation is inactive: 2.63%.
Under `CO[C@@H]1[C@@H](O[C@@H]2O[C@H](C)[C@@H](O[C@H]3C[C@@](C)(O)[C@@H](O)[C@H](C)O3)[C@H](N(C)C)[C@H]2O)[C@@H](CC=O)C[C@@H](C)[C@@H](O[C@@H]2CC[C@H](N(C)C)[C@@H](C)O2)/C=C/C=C/C[C@@H](C)OC(=O)C[C@H]1OC(C)=O` stands inactive: -10.4%; under `COc1cccc(-c2ccc3c(N)c(C(=O)Nc4cc(F)ccc4F)sc3n2)c1`, inactive: 1.31%; under `Cc1cc(OI)c(C(C)C)cc1-c1cc(C(C)C)c(OI)cc1C`, inactive: 18.4%.
Turning to `COc1cccc(CNCCSc2nnnn2C)c1OCc1ccccc1F`, the activation was inactive: 30.3%.
Regarding `CCCCOC(=O)c1cccc(NC(=O)c2cc3ccccc3o2)c1`, the activation was inactive: 19.2%.
In the case of `CCOc1ccc(C(=O)Nc2cccc(OCc3cc(=O)n4cc(C)sc4n3)c2)cc1`, the activation was inactive: 24.3%.
Regarding `O=C(Nc1ccc(Cl)cc1F)c1cc(S(=O)(=O)NCc2ccc3c(c2)OCO3)ccc1F`, the activation is inactive: 16%.
With `CCc1ccc2oc(C(=O)Nc3sc4c(c3C(=O)NC)CCCC4)cc(=O)c2c1`, the activation is inactive: 0.439%.
For `O=C(NCCc1ccccc1)c1ccc(CSc2nc3ccncc3n2Cc2ccc(F)cc2)cc1`, the activation is inactive: -15.5%.
As for `CCCCn1cc(S(=O)(=O)c2cccc(C)c2)c(=O)c2cc(F)c(N3CCOCC3)cc21`, the activation was inactive: -7.65%.
`CN(C)CCn1c2c(c(SCC(=O)Nc3ccc(F)cc3F)nc1=O)CCC2`: the activation was inactive: -5.47%.
For the compound `Cc1ccccc1OC(=O)CSc1nnc(-c2cccs2)o1`, the activation was inactive: -4.28%.
`CCOC(=O)c1c(S(=O)(=O)N2CCCC(C(=O)N3CCN(c4ccccc4)CC3)C2)c(C)n(C)c1C` (stereo not given): the activation is inactive: -0.185%.
For the compound `Cc1ccc(C)c(Cn2nc(-c3cc(C)ccc3C)ccc2=O)c1`, the activation is inactive: 27.9%.
Next, `O=[N+]([O-])c1ccc(C(c2sc3nc(-c4ccco4)nn3c2O)N2CCN(c3cccc(Cl)c3)CC2)cc1` (stereo not given): inactive: -21.2%; `CCOC(=O)c1cc2c(=O)n3ccccc3nc2n(CC2CCCO2)c1=NC(=O)c1ccc(C)cc1` (stereo not given): inactive: -13.5%.
As to `COc1cccc(N2CC(NC(=O)c3ccc(S(=O)(=O)N4CCCCC4)cc3)CC2=O)c1` (stereo not given), the activation was inactive: -5.2%.
